Measured values reported in the supplement of paper PMC11417369.
± gives the standard deviation of the averaged measurements. This is one part of the list.

These sequences were tested on PfAP2-G AP2 domain (GST-tagged) (assay: gcPBM binding intensity (ln(normalized median fluorescence intensity)); higher = stronger DNA binding).
Procedure, shortened: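 Plasmodium falciparum DNA-binding domains carrying a GST tag were expressed in E. coli and applied for 1 h, at about 25 μg on average, to an Agilent 4 × 180k array. The array held primer-extended double-stranded 36-bp intergenic genomic probes together with negative controls, and binding took place in 1× PBS with 1% milk, 0.2 mg/ml BSA, 0.5% salmon testes DNA and 0.03% Triton X-100. An Alexa488 anti-GST antibody detected bound protein, and the array was scanned at 488 nm. Binding intensity is taken as the highest Masliner-normalised natural-log median intensity across replicate spots of either probe orientation.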

| Sequence | gcPBM binding intensity (ln) |
| --- | --- |
| TATTTTATATAAAGGTGTACTTATACAAAAATATAT [XGTACX_site7435] | 11.5 ± 0.88 |
| TATACAGGAATATTTTTACACACTAATAATTATAAA [CACACA_site8477] | 9.95 ± 0.13 |
| TATTTACAACAAATTTAATTATTTTTAACTTATAAA [GTGCAC_negctrl_site259] | 9.44 ± 0.21 |
| AGATAGCTATTAAAAAGTACAAAAAAATATATATAT [XGTACX_site6289] | 11.1 ± 0.75 |
| GGTTTGAATTTTTAAGTGCATATAACATAAATGAAA | 10.1 ± 0.3 |
| CATACATACAAACACACACACATATATATATATATA [CACACA_site43] | 9.96 ± 0.23 |
| TTATATTATATATATATTATATATATGTATGCATAA [TGCATGCA_negctrl_site481] | 9.72 ± 0.15 |
| AAATATTTGTGTGGTTGTACTATAATGATAAAAATA [XGTACX_site7703] | 11.1 ± 0.56 |
| TTTTTTCAAATTATTCGATATGTAAAAAAATAAAAT [GTGCAC_negctrl_site241] | 9.85 ± 0.11 |
| TTTTTTTTTTTTGAGTGTACAAGATTGTTGTTCCAA [XGTACX_site6120] | 11 ± 0.88 |
| TACATAAACATTTATACACACATTATAAATACATAT [CACACA_site4386] | 9.945 ± 0.035 |
| ACAATTTTAAAATGAACACACATGTTTTTCTTACTT [CACACA_site1014] | 9.96 ± 0.13 |
| ATTTTCTATTTTATTTGTACGTAATTTAATTTTTTT [XGTACX_site3609] | 11.4 ± 0.71 |
| TTTTTTTTCTAAATTATATGAAAATATATGTTATGT [GTGCAC_negctrl_site85] | 9.65 ± 0.099 |
| AAGTAATTTGTTGACACACACACACGCATACCTATA [CACACA_site7140] | 10.4 ± 0.23 |
| TCCCAATTTCTATCCTGTACAGACATAAATATATAC [XGTACX_site5937] | 11 ± 0.51 |
| ATAAAGATTAATAAAATAAAATTCCGCAAACATATA [CACACA_negctrl_site244] | 9.955 ± 0.064 |
| TTTTGAAATTTTTGTGTTTTTCCTTTTTATTTTATA [CACACA_negctrl_site1740] | 9.82 ± 0.11 |
| ATAAATCCATGTAACTGTACTTTTTTTTTTTTTTTT [XGTACX_site7373] | 11.6 ± 0.91 |
| ACTTATGATTTATTTTGTACATATATACTATTCCTG [XGTACX_site5275] | 10.8 ± 0.36 |
| GTTTTAAAACAAATATGTACACATAATATAGGAAAG [XGTACX_site1803] | 11.7 ± 0.82 |
| ATTATATATATATATATATATATATATATATTATAT [CACACA_negctrl_site234] | 9.54 ± 0.26 |

| Sequence | gcPBM binding intensity (ln) |
| --- | --- |
| AATGTAATATAAATATGTACATATAAACTATATATA [XGTACX_site6871] | 11.2 ± 0.8 |
| ACAAATACTAACAACGCATGTAAGCCTACAATAAAT [TGCATGCA_site551] | 9.87 ± 0.042 |
| GCTCCTTTTACCATCGCACACGATAAAAAAAAATAA [CACACA_site3255] | 10.5 ± 0.47 |
| AAAGGGATAACACCAAAAAAAATAAAAATAAAAATA [GTGCAC_negctrl_site680] | 9.84 ± 0.028 |
| CAAAAATAACGAGTCAAACACACATATATATATATA [CACACA_site2038] | 10.1 ± 0.35 |
| TCAAGAATTTTAAAGAGTACATAAAACAATAATATA [XGTACX_site3923] | 11.4 ± 0.88 |
| CATACATACATACATACACACATACATATGTATTTA [CACACA_site5384] | 10.5 ± 0.33 |
| TATTTTATATTTCATTTGTTATTTTTCTTGGTTCTA [CACACA_negctrl_site33] | 9.75 ± 0.18 |
| ATGCGTATACTAAGAACACACAAGTTACTTGGTGTT [CACACA_site1625] | 10.07 ± 0.028 |
| ATTAATGATTTTTGTTGTACATTATTAATTTACATT [XGTACX_site544] | 11.1 ± 0.71 |
| AGTTTCCATATGAGGTGTACATATATAATTTATTAT [XGTACX_site2369] | 11.6 ± 0.71 |
| ACAAAATAAAGACACACACACAAACACAAAAAAATA [CACACA_site7568] | 10.4 ± 0.61 |
| CAACACTTTCAAAAATGTACGTACAAATGTATTTTA [XGTACX_site6713] | 11.7 ± 0.76 |
| TATGCACCCAGACACACACACACAACTAAAAAATAA [CACACA_site2567] | 10.5 ± 0.62 |
| TTTGTAGATTTTGTAACACACACATATATATACATA [CACACA_site8757] | 10 ± 0.14 |
| AAATTGTGTGAAATATATTAATATTATTATTATTAT [TGCATGCA_negctrl_site189] | 9.63 ± 0.32 |
| TTTTACCACTAAAAATGTACAAAAAAAAAAAAAAAA [XGTACX_site4226] | 10.8 ± 0.88 |
| CCTTGCATTTATTATACACACACAAAAAAATATATA [CACACA_site7964] | 10.3 ± 0.39 |
| AAAATATAATATATTGCACACAAAAAGTGAATTATT [CACACA_site8489] | 9.965 ± 0.049 |
| TACCATTATTTTAAGTGTACATACTAATTTATATAT [XGTACX_site6548] | 11.3 ± 0.83 |
| TCTTTCTATTTATAATGTACTCAAAATTATTCTATA [XGTACX_site4867] | 11.3 ± 0.68 |
| TTGCAAATATATGGTTGTACTCAAAAAAAAAAAAAA [XGTACX_site6975] | 11.6 ± 1.3 |
